Source: PubChem BioAssay AID2147 (National Center for Advancing Translational Sciences (NCATS), 2009)
Screen size: about 230,000 compounds; about 3,600 (1.6%) were called active. The inconclusive results got no clear call from the source; some entries with a clear call stand among them for comparison. Calls come from the whole dose curve; as a rule, active = well fitted inhibition curve with a large enough effect (not every such curve was filed as active); inconclusive = small, poorly fitted or top-dose-only effect, or another doubt; inactive = no such curve, though single readings can be large or run the other way. A potency beside an inconclusive call is a rough fit, not a confirmed value.

target: Lysine-specific demethylase 4E (Homo sapiens) (UniProt B2RXH2); test: qHTS Assay for Inhibitors of Human Jumonji Domain Containing 2E (JMJD2E); settings: JMJD2E catalytic domain, FDH-coupled NADH fluorescence (FDH is formaldehyde dehydrogenase); series mostly up to 57.1 µM; activity change, negative = inhibition: at the top concentration
Excerpt: Assay Provider: Structural Genomics Consortium [SGC] Screening Center PI: Austin, C.P. Screening Center: NIH Chemical Genomics Center [NCGC] The fine interplay among methylation states of several lysine residues on the tails of histone proteins is a major determinant of the transcriptional state of the associated DNA coding regions and is commonly referred to as the histone code. Histone lysine demethylases catalyze the removal of methyl groups from methylated lysine sidechains on histones H3 and H4, thus antagonizing the reactions catalyzed by histone lysine methyltransferases. […] In search for novel inhibitors of JMJD2E demethylase, a member of the largest set of histone demethylases belonging to the Fe(II) and 2-oxoglutarate oxygenase (2OG) superfamily, we performed a quantitative high-throughput screen (Inglese 2006) by using an assay which utilizes a trimethylated peptide substrate corresponding to a fragment of histone H3 (sequence ARKme3STGGK) with detection of the formaldehyde co-product in real time by a formaldehyde dehydrogenase (FDH) coupled reaction. FDH catalyzes oxidation of formaldehyde to formic acid with the concomitant reduction of the non-fluorescent beta-nicotinamide adenine dinucleotide hydrate (NAD+) cofactor to the fluorescent NADH co-product. References: Inglese, J., Auld, D., Jadhav, A., Johnson, R., Simeonov, A., Yasgar, A., Zheng, W. and Austin, C. Proc Natl Acad Sci USA 2006, 103, 11473-11478. N. R. Rose, S. S. Ng, J. Mecinovic, B. M. Lienard, S. H. Bello, Z. Sun, M. A. McDonough, U. Oppermann and C. J. Schofield, J Med Chem, 2008, 51, 7053-7056. Sakurai, M., Rose, N., Schultz, L., Quinn, A., Jadhav, A., Ng, S., Oppermann, U., Schofield, C.J. and Simeonov, A. Mol BioSystems 2009, in press. S. Michael, D. Auld, C. Klumpp, A. Jadhav, W. Zheng, N. Thorne, C. Austin, J. Inglese and A. Simeonov, Assay Drug Dev Technol, 2008, 6, 637-657.
Reagents and Controls: Ferrous ammonium sulfate, (+)-sodium L-ascorbate, beta-nicotinamide adenine dinucleotide hydrate (NAD+), Tween-20, formaldehyde dehydrogenase from P. putida (FDH), and disodium 2-oxoglutarate were from Sigma (St. Louis, MO). Black solid-bottom 384-well or 1,536-well assay plates were from Greiner Bio-One (Monroe, NC). Enzyme was supplied by Prof. Udo Oppermann, SGC-Oxford. The catalytic domain of human JMJD2E (residues 1-337) was produced as an N-terminally His6-tagged protein in E. coli, and purified by Ni-affinity chromatography and size-exclusion chromatography, and stored in HEPES 50 mM/ NaCl 500 mM pH 7.5, as reported in Rose 2008. The trimethylated histone peptide substrate ARK(me3)STGGK was synthesized and HPLC-purified by the Tufts University Core Facility (Boston, MA). Substrate solution (Sakurai 2009) contained 50 uM ARK(me3)STGGK, 0.00025 U/uL FDH, 50 uM 2-oxoglutarate, 250 uM NAD+, 1 mM ascorbate, and 10 uM ferrous ammonium sulfate. Controls and plate map: Buffer (150 mM HEPES pH 7.5 containing 0.01% Tween-20) in columns 3 and 4 as negative control (no enzyme) and 100 nM JMJD2E final concentration in columns 1,2, and 5-48. Assay Steps: Enzyme and buffer solutions (3 uL) were dispensed into a 1,536-well Greiner black solid-bottom assay plate. The library compounds (23 nL) were transferred using a Kalypsys pintool equipped with 1,536-pin array. The plate was incubated at room temperature (15 min), and then a 1 uL aliquot of substrate solution was added to initiate the reaction. The plate was transferred to ViewLux imager where an initial reading using standard UV optics (Ex 340 nm, Em 450 nm) was obtained. The plate was then removed from the reader, incubated for 30 minutes at room temperature, and returned to the reader for a second fluorescence reading. A fully automated robotic screening system (Kalypsys Inc, San diego, CA) was used to perform the above steps as described previously (Michael 2008). […]
Note: nearly all actives have a fitted effect of over 50% in size.
Potency is the fitted concentration of half-maximal effect; tags give direction and shape of the fitted curve.
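Throughout, for activity change, negative = inhibition: 0% = wells with enzyme and -100% = buffer wells without enzyme.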

Chain of UniProt B2RXH2 (B2RXH2 whole entry, looked up, the tested form may be a part): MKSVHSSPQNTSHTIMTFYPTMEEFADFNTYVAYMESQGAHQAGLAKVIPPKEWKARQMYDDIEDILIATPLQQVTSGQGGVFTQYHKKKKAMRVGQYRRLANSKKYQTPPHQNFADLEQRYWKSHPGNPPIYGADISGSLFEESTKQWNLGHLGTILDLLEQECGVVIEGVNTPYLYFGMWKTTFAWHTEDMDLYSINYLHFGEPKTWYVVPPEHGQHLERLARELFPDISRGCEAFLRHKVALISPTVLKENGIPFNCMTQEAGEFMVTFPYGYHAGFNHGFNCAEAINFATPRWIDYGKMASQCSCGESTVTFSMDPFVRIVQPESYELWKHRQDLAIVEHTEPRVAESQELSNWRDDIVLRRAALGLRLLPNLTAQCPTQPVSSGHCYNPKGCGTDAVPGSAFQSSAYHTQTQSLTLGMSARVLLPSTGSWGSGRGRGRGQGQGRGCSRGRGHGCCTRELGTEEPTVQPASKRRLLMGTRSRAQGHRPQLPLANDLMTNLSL

SMILES | activity change, negative = inhibition | Potency
CCCSc1nsc(NC(=O)C(c2ccccc2)c2ccccc2)n1 | inactive: -12.1% | 
CC(=O)c1cccc(S(=O)(=O)N2CCN(c3nc4cc(C)cc(C)c4cc3C#N)CC2)c1 |  | inconclusive: 28.2 µM [inhibitor, partial curve]
Nc1ccc(O)cc1C(=O)OCC(=O)C12CC3CC(CC(C3)C1)C2 |  | inconclusive: 25.1 µM [inhibitor, partial curve]
Cc1cc2nc(C)c(Cc3ccccc3)c(=O)n2[nH]1 |  | inconclusive: 28.2 µM [inhibitor, partial curve]
Cc1ccc(Cc2cnc(NC(=O)c3cccs3)s2)cc1 |  | inconclusive: 39.8 µM [inhibitor, single point]
CN(C)CCCC1(O)c2ccccc2C=Cc2ccccc21 |  | inconclusive: 28.2 µM [inhibitor, partial curve]
COC(=O)c1ccc(NS(=O)(=O)c2ccccc2)o1 |  | inconclusive: 31.6 µM [inhibitor, single point]
Cc1cc(/C=N/NC(=O)c2cccc(F)c2)c(C)n1-c1ccccc1 |  | inconclusive: 39.8 µM [inhibitor, single point]
COCCNC(=S)N1CCN(C)CC1 |  | inconclusive: 35.5 µM [inhibitor, single point]
COC(=O)c1cc2sccc2n1Cc1nc(-c2ccc(OC)cc2)oc1C |  | inconclusive: 39.8 µM [inhibitor, single point]
C=CCNC(=S)Nc1nc2c(cc1C(=O)OCC)COC(C)(C)C2 |  | inconclusive: 28.2 µM [inhibitor, single point]
COc1ccc(Br)cc1/C=N/Nc1ccc(Cl)c(C(=O)O)c1 |  | inconclusive: 39.8 µM [inhibitor, single point]
Cc1ccn2cc(-c3ccc4c(c3)NC(=O)CO4)nc2c1 |  | inconclusive: 25.1 µM [inhibitor, partial curve]
Cc1ccc2sc(C)[n+](CCO)c2c1 | inactive: -7.84% | 
CC(C)OP(=O)(Nc1cccc2ccccc12)OC(C)C |  | inconclusive: 35.5 µM [inhibitor, single point]
CC(=O)c1sc(NCCOc2ccc(C)cc2)nc1C |  | inconclusive: 31.6 µM [inhibitor, single point]
CCN(C(=O)COC(=O)/C=C/c1nc2ccccc2s1)C1CCS(=O)(=O)C1 (centres undefined) |  | inconclusive: 31.6 µM [inhibitor, partial curve]
CCCOc1ccc(-c2nc(C#N)c(N3CCN(CC)CC3)o2)cc1 |  | inconclusive: 28.2 µM [inhibitor, partial curve]
COc1cccc(OC)c1C(=O)Nc1ccc2c(c1)Cc1ccccc1-2 |  | inconclusive: 39.8 µM [inhibitor, single point]
COc1cccc(-c2nnc(NC(=O)c3cccs3)s2)c1 |  | inconclusive: 17.8 µM [inhibitor, partial curve]
CCOC(=O)c1sc2nc(N3CCOCC3)c3c(c2c1N)CC(C(C)C)OC3 (centres undefined) |  | inconclusive: 3.55 µM [inhibitor, full curve]
c1ccc(-n2nnnc2OCCOc2nnnn2-c2ccccc2)cc1 | inactive: -7.41% | 

SMILES | activity change, negative = inhibition | Potency
CCOc1ccccc1-c1nc(CN(Cc2cnn(C)c2)C(C)C)c(C)o1 |  | inconclusive: 22.4 µM [inhibitor, single point]
O=C(Nc1ccc(NC(=O)c2sc3ccccc3c2Cl)cc1Cl)c1ccco1 |  | inconclusive: 8.91 µM [inhibitor, single point]
CCN(C(=O)CSc1nnc(-c2ccc(F)cc2)c2ccccc12)C1CCS(=O)(=O)C1 (centres undefined) | inactive: -3.54% | 
CC(=O)Nc1nc(CC(C)C)cc2c1c(=O)oc1ccccc12 |  | inconclusive: 35.5 µM [inhibitor, partial curve]
COc1cc(/C=C2/CCC/C(=C\c3cc(O)c(OC)c(Cl)c3)C2=O)cc(Cl)c1O | inactive: 0.417% | 
O=C(COC(=O)c1n[nH]c2ccccc12)NC(=O)NC1CCCCC1 |  | inconclusive: 39.8 µM [inhibitor, single point]
Cc1[nH][nH]c(=O)c1C(c1ccc(-c2ccc(C(=O)O)cc2)o1)c1c(C)[nH][nH]c1=O |  | inconclusive: 31.6 µM [inhibitor, partial curve]
O=C(NCCc1ccccc1)C1CCC(Cn2c(=O)c3ccccc3n(Cc3cccnc3)c2=O)CC1 (centres undefined) |  | inconclusive: 35.5 µM [inhibitor, single point]
c1cncc(-c2nc(-c3cccs3)cs2)c1 |  | inconclusive: 35.5 µM [inhibitor, single point]
COC(=O)c1cnc(N2CCCN(S(=O)(=O)c3ccccc3)CC2)nc1C(F)(F)F |  | inconclusive: 31.6 µM [inhibitor, single point]
O=C(Cc1ccccc1)Nc1ccc2oc(=O)ccc2c1 |  | inconclusive: 28.2 µM [inhibitor, partial curve]
COc1ccc(SCC(=O)Nc2ccccc2Cl)cc1 |  | inconclusive: 8.91 µM [inhibitor, single point]
Oc1c(CN2CCN(c3ccc(F)cc3)CC2)cc(Cl)c2cccnc12 |  | inconclusive: 39.8 µM [inhibitor, single point]
O=C(Nc1ccc2c(c1)N(Cc1ccccc1)C(=O)c1ccccc1S2)NC1CC1 | inactive: 12.3% | 
COc1cc(/C=N/Nc2snc(SC)c2C#N)ccc1O |  | inconclusive: 35.5 µM [inhibitor, single point]
O=S(=O)(c1ccccc1)n1c(C(O)c2ccccn2)cc2ccccc21 (centres undefined) | inactive: -3.52% | 
CNc1nc(C)c(C#N)cc1C(C)=O |  | inconclusive: 8.91 µM [inhibitor, single point]
O=c1[nH]c(NCCCO)nc2c1C1(CCCC1)Cc1ccccc1-2 |  | inconclusive: 31.6 µM [inhibitor, partial curve]
O=C(O)C1Nc2c(O)cc(Cl)c([N+](=O)[O-])c2C2C=CCC12 (centres undefined) |  | active: 7.94 µM
CC(C)(CSc1ccccn1)NS(=O)(=O)c1ccccc1 | inactive: -3.23% | 
CCOC(=O)c1cnc(-n2nc(C)cc2C)nc1NNc1ncc(-c2ccccc2)cn1 |  | inconclusive: 7.94 µM [inhibitor, full curve, poor fit]
CCC(C)N1CCN(S(=O)(=O)c2ccc(NC(C)=O)cc2)CC1 (centres undefined) |  | inconclusive: 39.8 µM [inhibitor, single point]
